# Laboratory results reported in PubChem BioAssay AID485364 (National Center for Advancing Translational Sciences (NCATS), 2010).
# In all, about 360,000 compounds went through this assay and about 11,000 (3.1%) were called active. Inconclusive results, whose numbers are uncertain, are shown with a selection of clear calls. Calls come from the whole dose curve; as a rule, active = well fitted inhibition curve with a large enough effect; inconclusive = small, poorly fitted or top-dose-only effect; inactive = no such curve, though single readings can be large or run the other way. No potency is given beside an inconclusive call; the fits are too rough.
# Target: Schistosoma mansoni thioredoxin glutathione reductase (TGR) (UniProt Q962Y6)
# Test: qHTS Assay for the Inhibitors of Schistosoma Mansoni Peroxiredoxins; note: nearly all actives have a fitted effect of over 60% in size
# Settings: purified TGR, DTNB reduction, TNB absorbance 405 nm; activity change, negative = inhibition: at 114 µM (top of the series)
# Procedure, shortened: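 First, TGR (20 nM dispensed) and NADPH were mixed with compound. Second, a 15 min room-temperature incubation followed. Third, further NADPH and then DTNB were added to start the reaction. Finally, TNB absorbance was monitored kinetically.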
# % is set by controls: 0 for no effect and ±100 for the full control effect; potency is the fitted concentration of half-maximal effect; tags give direction and shape of the fitted curve.
Structure (SMILES),"activity change, negative = inhibition",Potency
Cc1ccc(OCCCC(=O)Nc2sc3c(c2C(N)=O)CCCC3)cc1,inactive: -11.5%,–
COc1cc(/C=N/N2CCN(Cc3ccc(C)cc3)CC2)cc(OC)c1O,–,"inconclusive [inhibitor, partial curve, poor fit]"
Cc1cc(C)cc(N2C(=O)CC(N3CCOCC3)C2=O)c1 (stereo unspecified),–,active: 50.1 µM
Cc1ccccc1-c1cccc([C@@H]2C[C@H]3CN(Cc4cccnc4)C(=O)[C@]34CCCN24)c1,–,"inconclusive [inhibitor, partial curve]"
COc1ccc(NC(=O)Nc2cccs2)cn1,–,active: 12.6 µM
CCOC(=O)C1CCCN(CCSc2ccc(C)cc2)C1 (stereo unspecified),–,"inconclusive [inhibitor, partial curve]"
O=C1CC(N2CCN(Cc3ccc4c(c3)OCO4)CC2)C(=O)N1CCc1ccccc1 (stereo unspecified),–,"inconclusive [inhibitor, partial curve]"
Cc1cccc(N(CC(=O)NCCSCc2ccco2)S(=O)(=O)c2ccccc2)c1,–,active: 31.6 µM
O=C(NCc1ccco1)c1ccccc1NS(=O)(=O)c1ccc(Br)s1,–,"inconclusive [inhibitor, partial curve, poor fit]"
C=CCn1c(SCc2ccc3c(c2)OCO3)nc2scc(-c3ccco3)c2c1=O,–,"inconclusive [inhibitor, full curve]"
NS(=O)(=O)c1cc2c(cc1Cl)NC=NS2(=O)=O,inactive: -9.73%,–
CCCn1c(=N)n(CC(O)c2ccco2)c2ccccc21 (stereo unspecified),–,"inconclusive [inhibitor, partial curve, poor fit]"
O=C(CCl)N(Cc1cc(=O)[nH]c2ccccc12)c1ccccc1,–,active: 3.55 µM
Cc1cccc(C(=O)Nc2cccc(C(=O)OCc3cc(=O)n4ccsc4n3)c2)c1,inactive: 1.54%,–
COc1ccc(OC)c(S(=O)(=O)N2CCCC(C(=O)NCc3ccco3)C2)c1 (stereo unspecified),–,"inconclusive [inhibitor, partial curve]"
CCOc1ccc(S(=O)(=O)N2CCC(C(=O)NC3CC3)CC2)cc1C,inactive: 2.89%,–
CC(=O)c1ccc(NC(=O)C2CCCN(S(=O)(=O)c3c(C)[nH]c(=O)[nH]c3=O)C2)cc1 (stereo unspecified),–,"inconclusive [inhibitor, single point]"
CCOC(=O)c1cccc(NC(=O)c2cc(-c3ccc(Cl)s3)nc3ccccc23)c1,–,"inconclusive [inhibitor, single point]"
COc1ccc(Cn2c(O)c(/C=N/NC(=O)c3ccccc3)c(=O)[nH]c2=O)cc1,–,"inconclusive [inhibitor, partial curve]"
COc1ccc(C(=O)c2cn(CC(=O)Nc3ccc4c(c3)OCO4)c3ccc(OC)cc3c2=O)cc1,inactive: -0.835%,–
Cc1ccc(C)c(S(=O)(=O)NCc2ccc(C(=O)N3CCOCC3)cc2)c1,–,"inconclusive [inhibitor, single point]"
COCCNc1oc(COc2cccc(C)c2)nc1C#N,inactive: -27.5%,–
CCN(CC(=O)Nc1cc(Cl)ccc1C)C(=O)CCS(=O)(=O)c1ccc(Cl)cc1,–,"inconclusive [inhibitor, full curve, poor fit]"
COc1cccc(CN2CCC(C(=O)N3CCN(Cc4ccc5c(c4)OCO5)CC3)CC2)c1,inactive: -0.311%,–

Structure (SMILES),"activity change, negative = inhibition",Potency
N#CC1=C(N)SC(N)=C(C#N)C1CCC1CCCCC1,–,"inconclusive [inhibitor, partial curve]"
O=C1NC(=O)N(Cc2ccc(F)cc2)C(=O)/C1=C\c1ccoc1,–,"inconclusive [inhibitor, full curve]"
Cc1ccc(S(=O)(=O)C(CCC(=O)N2CCOCC2)S(=O)(=O)c2ccc(C)cc2)cc1,–,"inconclusive [inhibitor, partial curve]"
CC(=O)C1=C(c2ccc(Br)cc2)C(=O)c2ccccc2C1=O,–,"inconclusive [inhibitor, partial curve]"
O=C(CSc1nnc(-c2ccc(O)cc2)n1Cc1ccco1)N1CCc2ccccc2C1,–,"inconclusive [inhibitor, partial curve]"
CCN(c1ccccc1)S(=O)(=O)c1ccc(OC)c(NC(=O)c2cc(Cl)ccn2)c1,–,active: 44.7 µM
CCCc1cc2c(=O)c(-c3nc4ccccc4s3)c(COCC(=O)O)oc2cc1O,–,active: 39.8 µM
COc1ccc(NC(=O)C2CCN(S(=O)(=O)c3c(C)noc3/C=C/N(C)C)CC2)cc1,inactive: -7.43%,–
CCOC(=O)N1CCN(C(=O)C2CCN(Cc3ccc(O)c(OCC)c3)CC2)CC1,–,active: 31.6 µM
O=C(C[N+]12CCC(CC1)C(C(O)(c1ccccc1)c1ccccc1)C2)c1ccc(Br)cc1 (stereo unspecified),inactive: 2.71%,–
COc1ccc(CCNC(=O)CCc2c(C)nc3c(c(C)nn3-c3ccc(C)c(C)c3)c2C)c(OC)c1OC,inactive: -6.2%,–
Oc1c(Br)cc(/C=N/n2c(-c3ccccc3)n[nH]c2=S)c(Br)c1O,–,"inconclusive [inhibitor, full curve, poor fit]"
Cc1ccccc1-c1n[nH]c(=S)n1/N=C/C=C/c1ccco1,–,active: 14.1 µM
O=C(CSc1ncccc1-c1nc2ccccc2[nH]1)NC1CC1,inactive: 4.94%,–
COc1ccc(NC(=S)Nc2cc(C)[nH]n2)cc1Cl,–,"inconclusive [inhibitor, full curve]"
O=C(NCc1ccco1)c1cc2ccccc2c(=O)o1,–,"inconclusive [inhibitor, partial curve]"
COC(=O)c1[nH]c2cc(C)ccc2c1NC(=O)CN1CCN(C(=O)c2ccco2)CC1,–,"inconclusive [inhibitor, partial curve]"
CN(C(=O)CSc1nc2ccc([N+](=O)[O-])cc2s1)C1CCS(=O)(=O)C1 (stereo unspecified),–,"inconclusive [inhibitor, partial curve]"
Cc1nnc(NC(=O)CSc2ccc([N+](=O)[O-])cn2)s1,–,"inconclusive [inhibitor, partial curve, poor fit]"
Cc1ccc(C(C(=O)NCc2ccco2)N(CCc2ccccc2)C(=O)Cn2nnc3ccccc32)o1 (stereo unspecified),inactive: -22.8%,–
O=C(CCCCCn1c(=O)c2sccc2n(CC(=O)Nc2cccc(Cl)c2)c1=O)NCc1ccc2c(c1)OCO2,–,"inconclusive [inhibitor, partial curve]"
Cc1cc(C)cc(NC(=S)NC2CC3CCCC(C2)N3C2CCCC2)c1 (stereo unspecified),–,active: 12.6 µM
COC(=O)C1=C(C(=O)OC)C(c2ccccc2O)c2sc(=O)[nH]c2S1 (stereo unspecified),–,active: 39.8 µM
Cc1nc2scc(C)n2c(=O)c1S(=O)(=O)NCc1ccc(F)cc1,inactive: -10.9%,–

Structure (SMILES),"activity change, negative = inhibition",Potency
Cc1c(C(=O)OCC(=O)NCc2ccco2)cccc1[N+](=O)[O-],–,"inconclusive [inhibitor, single point]"
CN(C)CCCn1c(SCCN2C(=O)c3ccccc3C2=O)nc2ccccc2c1=O,–,"inconclusive [inhibitor, partial curve]"
COC1=Cc2c(ccc3ccc(=O)oc23)OC1(C)C,inactive: 6.49%,–
COc1ccc(NC(=O)CCS(=O)(=O)c2nc(-c3cccs3)cc(C(F)(F)F)n2)cc1OC,–,active: 39.8 µM
Cc1cc(C)c(/C([O-])=C(/C(=S)Nc2ccc(SC(F)F)cc2)[n+]2ccccc2)cc1C,inactive: -12%,–
COc1ccccc1CNc1ccc2c(c1)CCC2,–,"inconclusive [inhibitor, partial curve, poor fit]"
Cc1ccc2occ(CN3CC4CC(C3)c3cccc(=O)n3C4)c(=O)c2c1 (stereo unspecified),–,"inconclusive [inhibitor, partial curve, poor fit]"
O=C(Nc1nc(-c2cccs2)cs1)c1ccc([N+](=O)[O-])o1,–,"inconclusive [inhibitor, full curve, poor fit]"
Cc1cccc(C(=O)NCC2CCCO2)c1 (stereo unspecified),inactive: 0.371%,–
O=C(O)CCc1ccc(-c2cccs2)n1NC(=O)c1ccco1,–,"inconclusive [inhibitor, partial curve]"
O=C(O)C1C(C(=O)O)C2(Cl)C(Cl)=C(Cl)C1(Cl)C2(Cl)Cl (stereo unspecified),–,"inconclusive [inhibitor, partial curve, poor fit]"
O=C(Cc1ccccc1)Nc1ccc(N2CCCC2)cc1,–,"inconclusive [inhibitor, single point]"
c1ccc2c(-c3cn4ccccc4n3)c[nH]c2c1,inactive: -24.5%,–
COc1ccccc1CN=c1c([N+](=O)[O-])nn(-c2ccc3c(c2)OCCO3)n1O,–,active: 39.8 µM
COc1cc2c(cc1OC)C(/C=C/c1ccco1)=NCC2,–,"inconclusive [inhibitor, partial curve]"
Cn1c(-c2ccccc2)n[nH]c1=S,inactive: -1.98%,–
c1ccc(C2=Nc3cccc4cccc(c34)N2)cc1,–,active: 35.5 µM
CCOc1ccc2nc(SC3CC(=O)N(c4ccccc4)C3=O)sc2c1 (stereo unspecified),–,"inconclusive [inhibitor, full curve, poor fit]"
CC(=O)NC(Cc1ccc(N(CCCl)CCCl)cc1)C(=O)O (stereo unspecified),–,"inconclusive [inhibitor, partial curve]"
Cc1ccsc1C(=O)N/N=C/C=C/c1ccccc1[N+](=O)[O-],inactive: 1.86%,–
COC(=O)c1ccc2c(=O)n(Cc3ccc(C(=O)NCCCN4CCC(C)CC4)cc3)c(=S)[nH]c2c1,–,"inconclusive [inhibitor, partial curve]"
COc1ccc(C(=O)CN2CCN(S(=O)(=O)c3ccc(C(C)C)cc3)CC2)cc1,–,"inconclusive [inhibitor, full curve]"
CC1CCN(c2ncnc3c2cnn3-c2ccc(F)cc2)CC1,inactive: 3.28%,–
